Laboratory results reported in PubChem BioAssay AID1461 (National Center for Advancing Translational Sciences (NCATS), 2008).
Screen size: about 220,000 compounds; about 2,300 (1%) were called active. Inconclusive results, whose numbers are uncertain, are shown with a selection of clear calls. The call rests on the fitted dose curve; in most records, active means well fitted inhibition curve with a large enough effect; inconclusive means small, poorly fitted or top-dose-only effect, or effect the other way; inactive means no such curve, though single readings can be large or run the other way. Potencies of inconclusive entries are left out as doubtful fits.

target: Neuropeptide S receptor (Homo sapiens) (UniProt Q6W5P4); assay: qHTS Assay for Antagonists of the Neuropeptide S Receptor: cAMP Signal Transduction; details: CHO-NPSR cells, cAMP TR-FRET, antagonist mode; activity change, negative = inhibition: at 38.3 µM (top of the series) unless noted; further: nearly all actives have a fitted effect of over 50% in size
On the % scale 0 is the no-effect control and ±100 the full control effect; potency means the concentration at half of the fitted maximal effect; tags describe the fitted curve by direction and shape.

Chain of UniProt Q6W5P4 (Q6W5P4 whole entry, looked up): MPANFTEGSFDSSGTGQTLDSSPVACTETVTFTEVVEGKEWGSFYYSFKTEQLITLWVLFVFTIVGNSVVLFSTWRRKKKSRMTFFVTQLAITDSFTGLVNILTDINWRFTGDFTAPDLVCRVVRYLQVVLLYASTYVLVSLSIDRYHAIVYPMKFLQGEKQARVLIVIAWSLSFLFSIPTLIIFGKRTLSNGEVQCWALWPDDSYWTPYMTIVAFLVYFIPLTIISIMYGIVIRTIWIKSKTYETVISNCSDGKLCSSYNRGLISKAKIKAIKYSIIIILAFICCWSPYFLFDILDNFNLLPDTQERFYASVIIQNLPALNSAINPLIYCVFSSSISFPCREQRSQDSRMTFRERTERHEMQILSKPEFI

Structure (SMILES) | Potency | activity change, negative = inhibition
Cc1ccc(C(C(=O)NCc2ccco2)N(CCc2ccccc2)C(=O)Cn2nnc3ccccc32)o1 (configuration not stated) | inconclusive [inhibitor, partial curve, poor fit] | 
NC/C=C\C(=O)O | inconclusive [inhibitor, single point] | 
CCOC(=O)c1nnn(CC(=O)Nc2ccccc2OC)c1C(=O)OCC |  | inactive: -8.62% [at 46.1 µM]
CCn1cc(C(=O)N2CCN(c3cccc(C)c3C)CC2)c(=O)c2ccc(C)nc21 |  | inactive: -1.58%
CCN(CC)S(=O)(=O)c1ccc2c(c1)nc(SCc1nc3ccsc3c(=O)[nH]1)n2CC | inconclusive [activator, partial curve] | 
COc1ccc(C(=O)/C=C/N(C)C)cc1 |  | inactive: -7.55% [at 46.1 µM]
CC(=O)C1=C(c2ccc(Br)cc2)C(=O)c2ccccc2C1=O | inconclusive [inhibitor, single point] | 
Cc1ccccc1NS(=O)(=O)c1cc(C(=O)N2CCc3ccccc3C2)ccc1C | inconclusive [inhibitor, partial curve] | 
Cn1c(=O)c(C=Nc2ccccc2)c(O)c2ccccc21 |  | inactive: 8.57%
N#CC1=C(N)SC(N)=C(C#N)C1CCC1CCCCC1 |  | inactive: -1.39% [at 46.1 µM]
O=C(COc1ccccc1)Nc1ccc2c(c1)Cc1cc(NC(=O)COc3ccccc3)ccc1-2 |  | inactive: -4.05% [at 46.1 µM]
CC(C)(C)NC(=O)C(c1ccc(O)cc1)N(C(=O)Cn1nnc(-c2ccc(F)cc2)n1)c1ccccc1F (configuration not stated) | active: 12.6 µM | 
Cn1c2ccccc2c2c(C(=O)N3CCN(c4ccccc4)CC3)cn(C3CCCC3)c(=O)c21 | inconclusive [inhibitor, full curve, poor fit] | 
CC1=C(C(=O)OCc2ccccc2)C(c2cccnc2)n2ncnc2N1 (configuration not stated) | inconclusive [inhibitor, full curve, poor fit] | 
Fc1cc(F)c(C2SCCN2C(=S)Nc2cccc(C(F)(F)F)c2)c(F)c1 (configuration not stated) | inconclusive [activator, single point] | 
O=C1N2CCSC2=NC1(Nc1nccs1)C(F)(F)F (configuration not stated) | inconclusive [inhibitor, single point] | 
CSc1n[nH]c(-c2sccc2OCc2ccc(C)cc2)n1 | inconclusive [activator, full curve] | 
CN(C)c1ccc(/C=N\NC(=O)c2cccc3cc[nH]c23)cc1 | inconclusive [inhibitor, single point] | 
Cc1cc(C)cc(N(CC(=O)N2CC=C(c3ccccc3)CC2)S(=O)(=O)c2c(C)noc2C)c1 | inconclusive [inhibitor, partial curve] | 
Cc1ccc(CCc2nnc(SCC(=O)Nc3cc(Cl)ccc3Cl)n2-c2ccccc2)o1 |  | inactive: -33.7%
O=C(O)C(Oc1ccc2c3c(c(=O)oc2c1)CCC3)c1ccccc1 (configuration not stated) |  | inactive: -9.29% [at 46.1 µM]
COc1ccc(C=O)cc1CSc1ccccn1 | inconclusive [activator, single point] | 
CCOC(=O)CC1Sc2ccccc2NC1=O (configuration not stated) |  | inactive: -26.8% [at 46.1 µM]
COc1ccc(C)cc1NC(=O)CN(Cc1nnc(-c2ccc(Cl)cc2)o1)C1CCCC1 | inconclusive [inhibitor, partial curve] | 

Structure (SMILES) | Potency | activity change, negative = inhibition
COC(=O)C1=NN(C(=O)c2ccc(Cl)cc2)C(O)(c2ccccc2)C1 (configuration not stated) |  | inactive: -4.72% [at 46.1 µM]
CCOC(=O)C1CCCN(c2c(C(=O)c3ccccc3)cnc3ccc(OC)cc23)C1 (configuration not stated) | inconclusive [inhibitor, single point] | 
CCC(=O)Nc1ccc(NC(=O)CSc2nc3cc4c(cc3cc2C)CCC4)cc1 |  | inactive: -9.57% [at 46.1 µM]
CNC(=S)N1N=C(c2ccc(C)cc2)CC1c1ccc(Br)cc1 (configuration not stated) | inconclusive [inhibitor, single point] | 
COc1cccc(Oc2ccc(C(F)(F)F)cc2N)c1 | inconclusive [inhibitor, single point] | 
CCOc1cc(C(=O)Nc2cc(C)on2)cc(OCC)c1OCC |  | inactive: -12.5% [at 46.1 µM]
Cc1c(C(=O)O)c2cc(O)ccc2n1-c1ccccc1 |  | inactive: -5.32% [at 46.1 µM]
CCCCCCC/C=C\CCCCCCCCC(=O)O | inconclusive [inhibitor, single point] | 
CCC(=O)NC(c1cccs1)c1ccc2cccnc2c1O (configuration not stated) | inconclusive [activator, single point] | 
O=c1oc2ccccc2c2oc3cc(O)c(O)cc3c12 |  | inactive: 2.77%
c1ccc(CNc2nc(N3CCN(Cc4ccccc4)CC3)nc3ccccc23)cc1 | inconclusive [inhibitor, single point] | 
Cc1cc(=O)n2[nH]c(-c3sccc3-n3c(C)ccc3C)cc2n1 | inconclusive [inhibitor, single point] | 
N=c1c2c(-c3ccccc3)c(-c3ccccc3)n(Cc3ccco3)c2ncn1CCCO | inconclusive [activator, single point] | 
COc1ccc(OC)c(/C=N/NC(=O)c2csc3ccccc23)c1 | inconclusive [inhibitor, partial curve] | 
CC(NC(=O)c1ccc(Cn2cc([N+](=O)[O-])cn2)o1)c1ccccc1 (configuration not stated) |  | inactive: -2.74% [at 46.1 µM]
NC(=O)C1CCN(c2ncnc3c2c(-c2ccccc2)cn3-c2ccccc2)CC1 | inconclusive [inhibitor, single point] | 
N#CC(C(=O)OCc1ccccc1)c1nc2ccccc2nc1N1CCOCC1 (configuration not stated) | inconclusive [inhibitor, partial curve] | 
COc1ccc(C(C(=O)NC2CCCCC2)N(C(=O)c2cccs2)c2ccc3c(c2)OCO3)cc1 (configuration not stated) | inconclusive [inhibitor, partial curve] | 
Cc1cccc(C)c1Nc1nc2ccccc2o1 |  | inactive: -20.3% [at 46.1 µM]
Cc1c(CCOC(=O)c2cc([N+](=O)[O-])cc([N+](=O)[O-])c2)sc[n+]1CC(=O)c1ccc(Br)cc1 | inconclusive [inhibitor, single point] | 
O=C(c1ccco1)N1CCN(C(=O)C(Cc2ccccc2)NS(=O)(=O)c2cccs2)CC1 (configuration not stated) |  | inactive: -9.52% [at 46.1 µM]
O=C(O)c1cc(NCc2cccs2)ccc1N1CCOCC1 |  | inactive: -5.6% [at 46.1 µM]
CCN1CCC2(CC1)N=C(c1ccc(F)cc1)C(=S)N2C(=O)c1ccc(C)cc1 | inconclusive [inhibitor, single point] | 
COCCN(Cc1cc2cc3c(cc2nc1Cl)OCO3)C(=O)Nc1ccccc1OC | inconclusive [inhibitor, partial curve] | 

Structure (SMILES) | Potency | activity change, negative = inhibition
N#C/C(=C\c1ccc(N2CCOCC2)o1)C(=O)NC1CCCCC1 | inconclusive [inhibitor, single point] | 
O=C(COC(=O)c1ccc([N+](=O)[O-])s1)NCc1ccc(F)cc1 |  | inactive: 9.29%
Cc1ccc(Oc2nc(CN3CCOCC3)nc3sc4c(c23)CCC(C)C4)cc1C (configuration not stated) |  | inactive: -54.9%
Cc1ccccc1OCC(=O)O/N=C(\N)Cc1cccs1 |  | inactive: -14.8% [at 46.1 µM]
Cc1ccn(S(=O)(=O)c2ccc(C(C)(C)C)cc2)n1 | inconclusive [inhibitor, partial curve, poor fit] | 
CCc1nc2ccccc2n1CC(=O)N1CCN(S(=O)(=O)c2cccc(C(F)(F)F)c2)CC1 |  | inactive: -3.95% [at 46.1 µM]
Cc1ccc(C(C)C)c(OCC(=O)Nc2ccccc2N2CCN(C)CC2)c1 | inconclusive [inhibitor, single point] | 
CCc1cc2cc3c(cc2nc1SCC(=O)N1CCN(C(=O)c2ccco2)CC1)OCO3 | inconclusive [inhibitor, partial curve] | 
CCOc1ccc(/C=C2\SC(=S)N(NC(=O)c3ccncc3)C2=O)cc1OC | inconclusive [inhibitor, single point] | 
CC1(C)CC(=O)c2c(nn(-c3ccccc3)c2-c2ccncc2)C1 |  | inactive: -1.66% [at 46.1 µM]
COC(=O)c1ccc(Nc2cc(C)nc(-c3ccccc3O)n2)cc1 | inconclusive [activator, single point] | 
C(=C\c1ccccc1)/CN1CCN(c2ncnc3c2oc2ccccc23)CC1 | inconclusive [inhibitor, partial curve, poor fit] | 
NCCCC(=O)O | inconclusive [activator, single point] | 
CC(C)NC(=O)C1CCN(C2CCN(C(=O)c3ccc4cccc(F)c4n3)CC2)CC1 |  | inactive: 11.7%
COc1cc([N+](=O)[O-])cc(/C=N/NC(=O)c2cncc(Br)c2)c1O |  | inactive: 5.3% [at 7.67 µM]
Clc1ccc(Cn2nnc(-c3ccc(CN4CCOCC4)cc3)n2)cc1 | inconclusive [inhibitor, single point] | 
Cc1nn(Cc2ccccc2)c(C)c1C(=O)OCC(=O)c1cc(C)n(CC(F)(F)F)c1C | inconclusive [inhibitor, single point] | 
CC(C)C(=O)c1cc2c(cc1NC(=O)Nc1cccc3ccccc13)OCCO2 | inconclusive [inhibitor, single point] | 
Cc1cc2cc(C(c3nnnn3Cc3ccco3)N3CCCCC3)c(=O)[nH]c2cc1C (configuration not stated) |  | inactive: -6.52% [at 46.1 µM]
CN(C)C(=O)c1cc([N+](=O)[O-])cc([N+](=O)[O-])c1N(C)C | inconclusive [inhibitor, single point] | 
Cn1c(/C(C#N)=C(\O)COc2ccc3ccccc3c2)nc2ccccc21 | inconclusive [inhibitor, single point] | 
COc1ccc(C(=O)Nc2ccccc2C(=O)N/N=C/c2ccc(O)c(OC)c2)cc1 | inconclusive [inhibitor, single point] | 
Cn1cnnc1SCC(=O)Nc1ccc2nc(SCc3ccccc3Cl)sc2c1 |  | inactive: -12.6% [at 46.1 µM]
C/C(=C\C(=O)c1ccc(C)cc1)Nc1cccc(O)c1 | inconclusive [inhibitor, partial curve] | 
